About 18,000 (5.8%) of roughly 310,000 compounds were called active. The shares of active, inactive and inconclusive entries below differ from those in the screen. Calls come from the whole dose curve; as a rule, active = well fitted inhibition curve with a large enough effect; inconclusive = small, poorly fitted or top-dose-only effect, or another doubt; inactive = no such curve, though single readings can be large or run the other way. No potency is given beside an inconclusive call; the fits are too rough.
experiment: Primary qHTS for delayed death inhibitors of the malarial parasite plastid, 48 hour incubation; settings: P. falciparum luciferase growth in erythrocytes; series mostly up to 28.7 µM
Procedure, shortened: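 Compounds are pin-transferred into medium, infected erythrocytes (2% hematocrit, 0.1% parasitemia final) are added, and plates sit one parasite generation at 37 C in 5% CO2. Detection reagent is then added and luminescence measured.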
Potency is the fitted concentration of half-maximal effect; tags give direction and shape of the fitted curve.

SMILES | Potency
Cc1[nH]n(-c2cccc3ccccc23)c(=O)c1/C=N/NC(=O)c1cccc([N+](=O)[O-])c1 | inconclusive [inhibitor, single point]
CC(C)NC(=O)CCCc1c[nH]c2ccccc12 | inactive
CCOCCCNC(=O)c1cn(CC)c2ccc(S(=O)(=O)N3CCOCC3)cc2c1=O | inactive
COc1cc(C)cc(CN2CC=C(c3ccccc3)CC2)c1O | active: 1.17 µM
O=[N+]([O-])c1ccc(NC2CCN(Cc3ccccc3)CC2)c2ccncc12 | active: 1.65 µM
O=C(CN1CCCCC1)Nc1ccc(N2CCCCCC2)cc1 | inconclusive [inhibitor, single point]
CN(CCC1CCCCO1)C(=O)CCc1nnc(Cc2c[nH]c3ccccc23)o1 (stereo unspecified) | inconclusive [inhibitor, partial curve, poor fit]
CCn1c(SCC(=O)N2CCCc3ccccc32)nnc1-c1cccs1 | inconclusive [inhibitor, partial curve]
COc1ccc(N2CCN(C(=O)CCC(=O)N3CCOc4ccc(C)cc43)CC2)cc1 | inconclusive [inhibitor, partial curve, poor fit]
Cc1ccc(-c2nc(N3CCN(C)CC3)c3ccccc3n2)cc1 | inconclusive [inhibitor, single point]
NC(=O)C1CCN(CC(=O)Nc2cc(Cl)ccc2Oc2ccccc2)CC1 | inconclusive [inhibitor, partial curve, poor fit]
CN1CCN(c2nnc(-c3ccc(F)cc3)c3ccccc23)CC1 | inconclusive [inhibitor, partial curve]
CCOC(=O)c1c(NC(=O)CSc2n[nH]c(N)n2)sc(CC)c1C | inconclusive [inhibitor, partial curve, poor fit]
COC(=O)c1cc(OC)c(OC)cc1NC(=O)c1cc(C(C)(C)C)oc1C | active: 2.94 µM
CCOc1ccc2nc(N3CCC(C(=O)N4CCC5(CC4)OCCO5)CC3)sc2c1 | inactive
O=S(=O)(NC1c2cccc3cccc(c23)C1N1CCNCC1)c1ccc(Cl)cc1 (stereo unspecified) | inconclusive [inhibitor, single point]
C/C(=N\N=C(/N)c1nonc1N)c1ccc2c(c1)OCO2 | inactive
CN1CCN(C(CNS(=O)(=O)c2ccc(Cl)cc2)c2cccnc2)CC1 (stereo unspecified) | inconclusive [inhibitor, single point]
Cc1ccc(-n2c(C)cc(C=C3C(=O)CC(C)(C)CC3=O)c2C)cc1 | inconclusive [inhibitor, full curve, poor fit]
CCCN(CC(=O)Nc1cc(Cl)ccc1Cl)C(=O)/C=C/c1ccco1 | inconclusive [inhibitor, single point]
COc1ccccc1NS(=O)(=O)c1ccc2c(c1)NC(=O)C(C)S2 (stereo unspecified) | inconclusive [inhibitor, single point]
COc1ccc2c(c1)CC/C(=C\Nc1ccc3c(c1)OCO3)C2=O | inactive
CCCN1CCC(=O)N([C@H](CN=[N+]=[N-])CC(C)C)CC1 | inconclusive [inhibitor, single point]

SMILES | Potency
CC(NC(=O)Nc1ccc(O)cc1)(C(F)(F)F)C(F)(F)F | inconclusive [inhibitor, partial curve, poor fit]
OC(CNCCc1ccc(C(F)(F)F)cc1)COc1cccc2ccccc12 (stereo unspecified) | active: 7.38 µM
C[C@@H](N)C(=O)O | active: 16.9 µM
O=C(NC1CCCC1)c1cccc2c1C(=O)c1ccc(/C=C/c3ccccc3)cc1S2(=O)=O | inconclusive [inhibitor, single point]
COCc1cc(=O)[nH]c(SCC(=O)c2ccccc2)n1 | active: 2.08 µM
CCOc1c(Br)cc(/C=N\NC(=O)c2ccccc2)cc1OC | active: 5.22 µM
COc1ccccc1N1CCN(CCCNC(=O)C2CCCN(c3ncnc4c3nc3n4CCCCC3)C2)CC1 (stereo unspecified) | inconclusive [inhibitor, single point]
COc1ccc(Cc2noc(CN(C)Cc3cccc(-n4cccn4)c3)n2)cc1OC | inconclusive [inhibitor, single point]
Oc1ccc(-c2ccccc2)cc1CN1CCCCCC1 | active: 0.657 µM
CCOc1ccccc1NC(=O)Nc1ccc2c(c1)CCC2 | inactive
COC(=O)C1=C(C)N2C(=O)CSC2=NC1c1ccc2c(c1)OCO2 (stereo unspecified) | inconclusive [inhibitor, single point]
COc1ccc(-n2c(SCC(=O)Nc3cc(C)on3)nc3c(c2=O)SCC3)cc1 | inconclusive [inhibitor, partial curve, poor fit]
Cc1ccc(S(=O)(=O)N2CCC(C(=O)NN3CCCCC3)CC2)cc1 | inconclusive [inhibitor, single point]
COC(=O)c1cc(NC(=O)CN(c2ccccc2OC)S(=O)(=O)c2ccccc2)ccc1Cl | active: 10.4 µM
CC(C)[C@H](NC(=O)OC(C)(C)C)C(=O)N/N=C/c1cccc2nccnc12 | inconclusive [inhibitor, single point]
O=C(OC1CCOC1=O)c1cccc(S(=O)(=O)Nc2cccc(Cl)c2)c1 (stereo unspecified) | inconclusive [inhibitor, partial curve, poor fit]
Cc1c(C(=O)Nc2ccccn2)oc2c(Cl)cccc12 | inactive
COc1cccc(NS(=O)(=O)c2ccc3c(c2)NC(=O)C(C)S3)c1 (stereo unspecified) | inconclusive [inhibitor, partial curve]
O=C(CNC(=O)c1ccc(Cl)cc1)OCCCOC(=O)CNC(=O)c1ccc(Cl)cc1 | inactive
Brc1ccc(-c2ccccc2)cc1 | inactive
CCOc1ccc(C(C)NC(=O)Cc2ccccc2)cc1OCC (stereo unspecified) | active: 2.33 µM
CC(/C=N/NC(=O)NC1CCCCC1)=C\c1ccccc1 | active: 10.4 µM
CCOc1cc(C=C2C(=O)c3ccccc3C2=O)ccc1OCC(=O)Nc1ccc(C)cc1 | inconclusive [inhibitor, partial curve, poor fit]
